# Screen size: about 420,000 compounds; about 64,000 (15%) were called active. The shares of active, inactive and inconclusive entries below differ from those in the screen. Calls come from the whole dose curve; as a rule, active = well fitted inhibition curve with a large enough effect; inconclusive = small, poorly fitted or top-dose-only effect; inactive = flat fitted curve, though single readings scatter. No potency is given beside an inconclusive call; the fits are too rough.
# Experiment: qHTS for Inhibitors of human tyrosyl-DNA phosphodiesterase 1 (TDP1): qHTS in cells in absence of CPT; note: nearly all actives have a fitted effect of over 55% in size
# Details: DT40 Tdp1-/- hTDP1 cells, no CPT, ATP luminescence, 48 h; activity change, negative = growth inhibition: at 46.2 µM (top of the series)
# Outline: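 Compound effects on proliferation are scored in DT40 Tdp1-/-;hTDP1 cells in the absence of CPT. ATP levels (CellTiter-Glo luminescence) are recorded after a ≥48 hr, 37 °C incubation.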
# % is set by controls: 0 for no effect and ±100 for the full control effect; potency is the fitted concentration of half-maximal effect; tags give direction and shape of the fitted curve.
Compound,Potency,"activity change, negative = growth inhibition"
O=C(C1CCCN(S(=O)(=O)c2ccc(Br)s2)C1)N1CCCCCC1 (stereo unspecified),active: 14.6 µM,–
O=C(CCS(=O)(=O)Cc1ccccc1F)NCCc1ccc(Cl)cc1,–,inconclusive: -31.1% [inhibitor]
COc1ccc(-c2csc(N(CC3CCCO3)C(=O)c3ccccc3)n2)cc1 (stereo unspecified),"inconclusive [inhibitor, single point]",–
CC(C)COC(=O)Cn1cnc2ccc(Br)cc2c1=O,–,inconclusive: -34.3% [inhibitor]
Cc1ccc(-n2ncc3c2CCCC3NC(=O)CSc2ccccn2)cc1C (stereo unspecified),"inconclusive [inhibitor, single point]",–
COc1cccc(Nc2nc(N)c([N+](=O)[O-])c(NCc3ccco3)n2)c1,"inconclusive [inhibitor, single point]",–
CC1CCCN(Cc2nc3c(c(=O)n(C)c(=O)n3C)n2Cc2c(F)cccc2Cl)C1 (stereo unspecified),active: 9.2 µM,–
Cc1nn2c(=O)c(NC(=O)c3ccc(Cl)cc3)cnc2s1,"inconclusive [inhibitor, single point]",–
CC(C)(C)NC(=O)C(c1ccncc1)N(C(=O)Cn1nnc(-c2ccc(F)cc2)n1)c1cccc(F)c1 (stereo unspecified),inactive,–
CN(C)S(=O)(=O)c1ccc(NC(=O)CSc2nnc(-c3ccco3)o2)cc1,inactive,–
Cc1nc2ccn(Cc3cccnc3)c(=O)c2cc1C(=O)NCc1ccc(Cl)cc1,"inconclusive [inhibitor, single point]",–
Cc1nn(C)c(Oc2ccccc2)c1CCNS(=O)(=O)c1ccc(F)cc1,"inconclusive [inhibitor, single point]",–
CC1=NNC(=O)C1C(c1cccc(O)c1)C(C#N)C#N (stereo unspecified),inactive,–
COc1ccc(CCNC(=O)C(=O)NCC2OCCN2S(=O)(=O)c2cccs2)cc1OC (stereo unspecified),"inconclusive [inhibitor, single point]",–
COc1ccc(C(=O)N/N=C/c2ccc(OC)c(OS(=O)(=O)c3ccccc3)c2)cc1,active: 16.4 µM,–
O=C(NCc1ccccc1)C1=C[C@H](c2ccccc2)C[C@H](OCc2ccc(CO)cc2)O1,"inconclusive [inhibitor, single point]",–
CCOC(=O)c1c(S(=O)(=O)N(C)Cc2ccccc2)c(C)n(C)c1C,"inconclusive [inhibitor, single point]",–
N/C(=N\OC(=O)COc1ccccc1)c1cccnc1,inactive,–
CCN(CC)c1ccc(S(=O)(=O)N2CCOCC2)cc1NC(=O)CSc1n[nH]c(N)n1,–,inconclusive: -30.6% [inhibitor]
COc1ccc(C(=O)Nc2ccc3c(c2)N(C2CCCC2)C(=O)c2ccccc2S3)cc1OC,active: 5.17 µM,–
CCOc1cccc(CC(=O)N2CCc3c([nH]c4ccccc34)C2c2ccc(C)cc2)c1OCC (stereo unspecified),active: 18.4 µM,–
CC(Nc1cccc([N+](=O)[O-])c1)C(=O)Nc1ccc(S(=O)(=O)N2CCCC2)cc1 (stereo unspecified),active: 14.6 µM,–
CC(CNC(=O)c1ccc(CSc2nc3ccncc3n2Cc2cccc(F)c2)cc1)c1ccccc1 (stereo unspecified),"inconclusive [inhibitor, single point]",–

Compound,Potency,"activity change, negative = growth inhibition"
COc1cc(C(=O)Nc2ccc(Cl)c(-c3nc4ncccc4o3)c2)cc(OC)c1OC,active: 16.4 µM,–
O=C(Nc1ccccc1-c1ccccc1)c1cnccn1,"inconclusive [inhibitor, partial curve]",–
CCC(C)NC(C(=O)Nc1ccc(Cl)c([N+](=O)[O-])c1)c1ccccc1 (stereo unspecified),active: 16.4 µM,–
COCCn1c(SCC(=O)N(C(C)C)C(C)C)nnc1-c1cc2ccccc2cc1O,active: 20.6 µM,–
COC(=O)c1c(SC)nc2ccccc2c1OCc1ccc(C)cc1C,active: 25.9 µM,–
CC(C)OC(=O)CCC(=O)Nc1nc2ccccc2s1,inactive,–
Cc1sc(NC(=O)c2ccc(=O)n(C)n2)nc1-c1ccccc1,"inconclusive [inhibitor, single point]",–
O=C(CSc1nnc2scc(-c3ccc(Cl)cc3)n12)Nc1ccccc1F,"inconclusive [inhibitor, single point]",–
Cc1ccc(-c2cc(C(F)(F)F)n3nc(C(=O)Nc4sc5c(c4C#N)CCC(C)C5)cc3n2)cc1 (stereo unspecified),inactive,–
CC(C)(C)NC(=O)C(c1ccccc1)n1c(-c2ccc(-c3ccccc3)cc2)nc2ccccc21 (stereo unspecified),"inconclusive [inhibitor, single point]",–
CCc1ccccc1NC(=O)Cn1cccc1C1=NC(c2ccccc2)CO1 (stereo unspecified),inactive,–
O=C(Cn1cc(S(=O)(=O)N2CCN(c3ccccc3F)CC2)c2ccccc2c1=O)Nc1cccc(C(F)(F)F)c1,"inconclusive [inhibitor, partial curve]",–
O=C(NCc1csc2ccc(Cl)cc12)Nc1ccccc1,"inconclusive [inhibitor, single point]",–
CC(NS(=O)(=O)c1cccc(Cl)c1)C(=O)Nc1ccc(-c2nc3ccccc3s2)cc1 (stereo unspecified),"inconclusive [inhibitor, single point]",–
Cc1ccc(S(=O)(=O)/N=C2/NC(=O)/C(=C\c3cc(Br)cc(Br)c3O)S2)cc1,inactive,–
O=C(COc1ccc(S(=O)(=O)N2CCCC2)cc1)N1CCCC1,inactive,–
Cc1ccc(-c2nc3sc4c(c3c(=O)n2N)CCCC4)cc1,"inconclusive [inhibitor, single point]",–
O=C1Nc2cc(C(=O)NCCCN3CCCC3)ccc2S/C1=C\c1ccccc1,active: 18.4 µM,–
C=C(C)CNC(=O)c1ccc(OC2CCN(S(=O)(=O)N(C)C)CC2)cc1,"inconclusive [inhibitor, partial curve]",–
O=C(NCCc1ccccc1)C(=O)NCC(c1cccnc1)N1CCN(c2ccccc2)CC1 (stereo unspecified),active: 16.4 µM,–
N#Cc1ccccc1NC(=O)C1CC(=O)N(c2ccc3c4c(cccc24)CC3)C1 (stereo unspecified),inactive,–
Nc1oc2ccccc2c(=O)c1-c1ccc2c(c1)OCO2,"inconclusive [inhibitor, single point]",–
COc1cc(C(=O)OCC(=O)Nc2ccc(N3CCOCC3)cc2)ccc1OCC(C)C,–,inconclusive: -31.1% [inhibitor]

# Reference: PubChem BioAssay AID686978 (National Center for Advancing Translational Sciences (NCATS), 2013)
